Results as given in the supplement of paper PMC7335073.
In all, about 4,100 sequences were measured (“relative CpG methylation activity (normalised to average over all NNNCGNNN flanks)”: median about 0.94, highest 2% from about 1.9 on). This is one part of the list.

Each sequence was assayed against DNMT3B catalytic domain (mouse) (UniProt O88509) (assay: relative CpG methylation activity (normalised to average over all NNNCGNNN flanks) (relative (1 = mean)); higher = more methylation of the central CpG). Settings: system: in vitro, murine catalytic domain; CpG state: hemimethylated substrate pool; residues: 558-859.
Procedure, shortened: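 Pooled dsDNA substrates with a central CpG inside 10 random flanking nucleotides were methylated by murine DNMT3A or DNMT3B catalytic domain with 0.8 mM S-adenosyl-L-methionine in HEPES pH 7.5 buffer for 60 min at 37 °C. The DNA then went through proteinase K, BsaI-HFv2 digestion, hairpin ligation, bisulfite conversion and two-step PCR before Illumina sequencing. Relative methylation activity is the average methylation of each context with three flanking bases per side, divided by the mean over all contexts. Each experiment had two independent repeats.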

UniProt O88509, sequence (O88509 558-859): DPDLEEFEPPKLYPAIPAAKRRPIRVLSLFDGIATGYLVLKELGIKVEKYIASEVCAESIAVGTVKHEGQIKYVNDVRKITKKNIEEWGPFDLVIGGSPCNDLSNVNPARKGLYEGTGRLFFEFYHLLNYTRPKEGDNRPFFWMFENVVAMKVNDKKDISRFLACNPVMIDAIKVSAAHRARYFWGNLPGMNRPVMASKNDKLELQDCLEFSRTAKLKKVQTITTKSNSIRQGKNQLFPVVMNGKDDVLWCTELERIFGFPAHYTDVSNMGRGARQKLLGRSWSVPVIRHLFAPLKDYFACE

| Sequence | relative CpG methylation activity |
| --- | --- |
| TGCCGCAC | 0.36 |
| TCGCGATG | 0.762 |
| TACCGGAA | 0.571 |
| GAGCGGGC | 1.1 |
| TCTCGAGA | 1.96 |
| CGCCGGTT | 1.12 |
| CGACGCTA | 0.732 |
| AGCCGAGG | 0.855 |
| CTACGATT | 1.83 |
| GGGCGTCT | 0.272 |
| GCTCGTCC | 0.759 |
| ATACGAGC | 1.87 |
| TATCGCAT | 0.37 |
| AGCCGCCG | 0.444 |
| ATCCGGCC | 1.48 |
| ATACGGCT | 1.89 |
| CAACGCCA | 1.42 |
| TAGCGTTT | 0.454 |
| TCTCGGCG | 1.57 |
| CCACGTAC | 1.38 |
| CAGCGAGA | 0.963 |
| CCACGGCC | 1.7 |
| CAGCGACT | 0.883 |
| GAGCGTTG | 0.5 |
| TTACGTAT | 1.19 |

| Sequence | relative CpG methylation activity |
| --- | --- |
| GGACGTGA | 0.369 |
| GTCCGGTC | 1.78 |
| GGCCGATG | 0.926 |
| CTACGCAC | 1.59 |
| CTCCGGTG | 1.69 |
| AGCCGGGG | 0.556 |
| GTTCGCAG | 0.628 |
| GAACGGAC | 1.17 |
| AAACGGTG | 1.1 |
| GGCCGTGG | 0.0382 |
| CACCGGAG | 0.628 |
| GGACGGCC | 1.52 |
| ATTCGCGG | 0.818 |
| TCTCGCAT | 0.491 |
| TGTCGACC | 1.25 |
| AGTCGCCG | 0.957 |
| GCACGAAG | 1.11 |
| TTTCGGGA | 1.79 |
| TTCCGACA | 1.62 |
| GAACGTAC | 1.28 |
| AGCCGCAC | 0.35 |
| CATCGTTC | 0.911 |
| GCGCGGCT | 1.31 |
| TAGCGTAA | 0.597 |
| TTTCGGCG | 1.79 |

| Sequence | relative CpG methylation activity |
| --- | --- |
| CGTCGTTT | 0.292 |
| TCACGTTG | 0.752 |
| GCTCGGAT | 1.09 |
| AGTCGGTC | 1.44 |
| GGACGGTT | 0.784 |
| TGCCGTGG | 0.121 |
| AAACGCTG | 1.06 |
| TGACGTGG | 0.316 |
| GTGCGATT | 1.49 |
| CTTCGAGA | 1.95 |
| CTTCGGAT | 1.09 |
| TATCGGGG | 1.24 |
| GCGCGCGT | 0.468 |
| GTGCGCGA | 0.482 |
| ACTCGACC | 1.18 |
| TATCGGTG | 0.87 |
| AAGCGGGC | 0.837 |
| AGACGGCA | 1.56 |
| AATCGCGA | 0.413 |
| CCACGCAC | 1.03 |
| TGCCGCTT | 0.359 |
| CCCCGCCG | 1.02 |
| AACCGCAG | 0.172 |
| AACCGAGG | 1.09 |
| TCTCGGTA | 1.09 |

| Sequence | relative CpG methylation activity |
| --- | --- |
| CGACGGGG | 0.808 |
| TTACGGAG | 1.07 |
| ACTCGCAT | 0.531 |
| TACCGAAT | 1.18 |
| TGTCGTAA | 0.233 |
| CCACGGGT | 1.55 |
| CGCCGACG | 0.791 |
| TGACGTTC | 0.906 |
| CATCGATA | 1.88 |
| CATCGGGC | 1.77 |
| GCGCGTTG | 0.634 |
| TTACGCCT | 1.76 |
| GGGCGCAG | 0.154 |
| CAACGCCC | 1.54 |
| TCGCGGTT | 0.854 |
| TATCGTTT | 0.536 |
| TGCCGGGC | 0.926 |
| CTCCGTGC | 1.2 |
| CTTCGAAG | 1.28 |
| GATCGTGC | 0.318 |
| ACTCGTCC | 0.74 |
| AGGCGCGT | 0.179 |
| CCCCGGCC | 1.77 |
| TGACGACA | 1.03 |
| CAGCGTGA | 0.267 |

| Sequence | relative CpG methylation activity |
| --- | --- |
| ACGCGAGG | 1.04 |
| AAGCGGTA | 0.954 |
| TTACGTTA | 1.2 |
| GCGCGCGA | 0.459 |
| AGTCGACT | 1.56 |
| GAACGAGT | 1.39 |
| ATTCGACG | 1.07 |
| ATTCGCCT | 1.03 |
| GAGCGTCC | 0.679 |
| TCTCGTCC | 0.856 |
| CTACGTAT | 1.44 |
| GTACGATC | 1.73 |
| GCGCGATT | 1.06 |
| CGACGGAT | 0.71 |
| ACGCGCGG | 0.473 |
| CGTCGGTA | 1.03 |
| ACGCGGGT | 0.948 |
| TTTCGCTC | 1.08 |
| TACCGGCC | 1.52 |
| TTCCGAAG | 1.32 |
| ACTCGCTC | 0.857 |
| GGCCGCCA | 0.368 |
| CCGCGTTA | 0.612 |
| TCGCGAAG | 0.702 |
| CTCCGAAA | 1.57 |

| Sequence | relative CpG methylation activity |
| --- | --- |
| CGTCGGAA | 0.691 |
| GTACGTGG | 0.725 |
| AGGCGTCT | 0.521 |
| CATCGCTG | 0.624 |
| TTACGCTC | 1.73 |
| CCACGTTC | 1.14 |
| TGGCGGAC | 0.639 |
| CATCGTTT | 0.449 |
| CTCCGTAT | 0.722 |
| TCACGCCA | 1.28 |
| GTTCGACA | 1.29 |
| TCTCGCTT | 0.839 |
| AGGCGCGG | 0.295 |
| TGGCGTTA | 0.413 |
| GGCCGTTT | 0.256 |
| ATCCGTCC | 1.35 |
| GTCCGTGT | 0.311 |
| TACCGTCA | 0.555 |
| CATCGTAC | 1.09 |
| AGGCGAAC | 0.555 |
| GTACGTTG | 0.964 |
| TCACGGAC | 1.27 |
| CCACGCGT | 1.03 |
| TGACGTTG | 0.612 |
| CCCCGCTT | 1.01 |

| Sequence | relative CpG methylation activity |
| --- | --- |
| ACTCGCGC | 0.741 |
| TTGCGCAT | 0.766 |
| CGACGACG | 0.927 |
| AGTCGACC | 1.54 |
| GCACGCAG | 0.749 |
| TATCGCCC | 1.03 |
| TATCGGCG | 1.79 |
| TCTCGGCT | 1.8 |
| CGCCGTGA | 0.212 |
| CAGCGTCA | 0.82 |
| CGACGAAG | 0.749 |
| TTTCGATC | 1.95 |
| GTTCGCGC | 0.723 |
| ACTCGTCA | 0.659 |
| GAACGTAG | 0.908 |
| CGCCGCCG | 0.493 |
| ATGCGCGG | 0.718 |
| ATACGTTT | 1.1 |
| CCGCGCCG | 0.82 |
| CGTCGTAT | 0.345 |
| CAACGTGA | 0.699 |
| CTTCGGCT | 1.9 |
| CGGCGCGC | 0.42 |
| AGACGGTC | 1.51 |
| ACCCGGGC | 1.61 |

| Sequence | relative CpG methylation activity |
| --- | --- |
| TTACGCCA | 1.78 |
| GCACGTCC | 1.07 |
| AGTCGACG | 0.986 |
| TAACGGTG | 1.38 |
| TGGCGCAA | 0.0734 |
| GGCCGTAG | 0.142 |
| AGCCGAGC | 1.24 |
| TGTCGAGA | 1.03 |
| GAGCGAAC | 0.932 |
| GAGCGTCA | 0.656 |
| ACACGAGA | 1.76 |
| ACACGAGC | 1.79 |
| GAACGTCG | 1.04 |
| CGACGGGC | 1.39 |
| TTACGCGC | 1.81 |
| AATCGGGC | 1.55 |
| TCACGGCA | 1.82 |
| CCGCGATC | 1.06 |
| AAGCGTTG | 0.377 |
| CATCGAGC | 1.72 |
| CTCCGGTC | 1.8 |
| TCACGGTA | 1.49 |
| CAGCGTAG | 0.472 |
| TCTCGAAC | 1.66 |
| CCTCGTAT | 0.458 |

| Sequence | relative CpG methylation activity |
| --- | --- |
| TAGCGCTG | 0.548 |
| ACTCGTTT | 0.42 |
| TCCCGAAT | 1.55 |
| ATTCGAAC | 1.69 |
| ACGCGCAT | 0.61 |
| CCACGAGT | 1.6 |
| CGCCGGGA | 0.833 |
| CACCGAGT | 1.51 |
| GTACGAAC | 1.8 |
| TAACGAGT | 1.49 |
| GCCCGTGG | 0.247 |
| GCACGCTA | 0.861 |
| TCTCGCTC | 1.02 |
| TTGCGGCT | 1.95 |
| ACGCGAAA | 0.904 |
| GACCGCTG | 0.533 |
| GCGCGCGG | 0.613 |
| TTTCGGTG | 1.25 |
| ATACGATT | 1.74 |
